Experimental data taken from PMC4336329 (PLoS ONE, 2015).
In all, about 310,000 compounds went through this assay and about 2,200 (0.71%) showed an effect of 50% or more. The effect is printed as a negative number. The list shows a part of the results.

target: human ether-à-go-go-related gene (hERG) potassium channel (human, UniProt Q12809); assay: primary screen, population patch clamp on CHO cells stably expressing hERG
Sequence (Q12809 whole entry, looked up): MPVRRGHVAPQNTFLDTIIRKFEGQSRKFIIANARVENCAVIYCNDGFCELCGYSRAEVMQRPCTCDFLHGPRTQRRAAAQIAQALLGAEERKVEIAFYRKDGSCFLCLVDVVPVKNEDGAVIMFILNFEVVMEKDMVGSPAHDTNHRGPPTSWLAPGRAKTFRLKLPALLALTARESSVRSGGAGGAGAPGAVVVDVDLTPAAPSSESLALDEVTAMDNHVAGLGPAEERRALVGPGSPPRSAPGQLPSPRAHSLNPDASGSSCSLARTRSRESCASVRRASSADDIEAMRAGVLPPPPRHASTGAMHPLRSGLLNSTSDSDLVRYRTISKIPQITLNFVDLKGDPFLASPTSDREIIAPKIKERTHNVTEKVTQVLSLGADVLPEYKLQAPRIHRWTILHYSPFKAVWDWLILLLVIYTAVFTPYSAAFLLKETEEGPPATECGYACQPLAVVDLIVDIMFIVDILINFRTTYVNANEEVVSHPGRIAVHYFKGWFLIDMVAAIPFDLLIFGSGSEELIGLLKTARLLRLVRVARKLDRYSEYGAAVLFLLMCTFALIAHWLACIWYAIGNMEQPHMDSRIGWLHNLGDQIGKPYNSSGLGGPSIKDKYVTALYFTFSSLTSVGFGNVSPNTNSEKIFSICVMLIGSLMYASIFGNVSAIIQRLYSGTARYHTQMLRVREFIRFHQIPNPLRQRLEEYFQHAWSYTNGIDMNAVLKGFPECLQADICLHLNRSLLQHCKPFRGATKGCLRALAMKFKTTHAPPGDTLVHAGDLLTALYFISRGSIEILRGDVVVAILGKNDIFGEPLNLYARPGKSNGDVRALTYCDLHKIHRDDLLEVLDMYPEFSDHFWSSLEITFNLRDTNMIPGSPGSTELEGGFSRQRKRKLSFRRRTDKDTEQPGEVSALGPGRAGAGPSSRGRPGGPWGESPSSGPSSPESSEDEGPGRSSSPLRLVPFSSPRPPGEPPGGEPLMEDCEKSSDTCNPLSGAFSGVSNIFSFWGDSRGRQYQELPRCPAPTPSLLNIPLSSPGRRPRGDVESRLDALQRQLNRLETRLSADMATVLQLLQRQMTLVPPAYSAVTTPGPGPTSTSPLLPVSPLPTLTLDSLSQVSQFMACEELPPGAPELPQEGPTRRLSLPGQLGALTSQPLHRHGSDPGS

Row | Compound | hERG current change (%, negative = inhibition) at 1uM
1 | CCN(CC(=O)Nc1ccc2c(c1)OCO2)Cc1nc2ccccc2c(=O)[nH]1 | -1.67%
2 | O=C(O)CSc1nc2ccc(C(=O)c3ccccc3)cc2[nH]1 | 17.1%
3 | O=C(c1ccc(Cl)cc1)N1CCC(O)(CSc2ccc(Cl)cc2Cl)CC1 | 9.88%
4 | CCCc1nc2ccc(NC(=O)c3cccs3)cc2c(=O)n1Cc1ccc(Cl)cc1 | 0.572%
5 | COC(=O)c1ccc(N2C(=O)C3C4C=CC(CC4)C3C2=O)cc1 (stereo not drawn) | 16.7%
6 | O=C(NCc1ccco1)C(=S)N1CCCCC1 | 7.66%
7 | CN(C)CCO[C@@H](c1ccc(Cl)cc1)c1ccccn1.O=C(O)/C=C\C(=O)O | 7.74%
8 | O=C(Cc1cccs1)N/N=C/C=C\c1ccco1 | 11.8%
9 | O=C(NCc1ccccc1Cl)c1cccc(OC2CCN(C(=O)C3CC3)CC2)c1 | 5.54%
10 | O=c1c2ccccc2ncn1Cc1cccc2ccccc12 | 5.31%
11 | Cc1ccc(S(=O)(=O)NCC(=O)NCC(=O)OCC(=O)NC(=O)NC(C)(C)C)cc1C | 15.9%
12 | O=C(COC(=O)Cn1[nH]c(=O)c2ccccc2c1=O)Nc1ccc2c(c1)OCO2 | 5.51%
13 | Cc1ccccc1NC(=O)CCCN1C(=O)C2CC=CCC2C1=O (stereo not drawn) | 14.5%
14 | O=S(=O)(c1ccccc1)c1ncc(C(F)(F)F)cc1O | 1.56%
15 | CN(C)CCC(=O)c1cccc(Br)c1.Cl | 18.6%
16 | Nc1c2c(nc3ccn(-c4ccccc4)c(=O)c13)CCCCC2 | -37.1%
17 | Cc1ccc(-c2cc(C(=O)NCc3cccnc3)no2)cc1 | 12.1%
18 | CCOC(=O)c1csc(NC(=O)C(C)(C)C)n1 | 11%
19 | CC1Cc2ccccc2N1S(=O)(=O)c1c(N)n(C)c(=O)n(C)c1=O (stereo not drawn) | 3.9%
20 | C=CCOC(=O)C1=C(C)Nc2nnnn2C1c1cc(OC)ccc1OC (stereo not drawn) | 8.87%
21 | CC(=O)/C=C/c1ccc(C)o1 | 3.67%
22 | COc1ccc(CCNC(=O)CCOc2cc(C)ccc2C)cc1OC | 3.03%
23 | COc1ccc(CN2CCNCC2)cc1.Cl | 14%

Row | Compound | hERG current change (%, negative = inhibition) at 1uM
24 | CN1CC(=O)Nc2ccccc2C1=O | 19.9%
25 | O=C1CC(C(=O)Nc2ccc(Cl)cc2)S/C(=N\N=C\c2ccco2)N1 (stereo not drawn) | 12.4%
26 | CCOC(=O)C1C2C=CC3(CN(C4CCCC4)C(=O)C13)O2 (stereo not drawn) | 7.17%
27 | O=C(NCc1ccccc1)N1CCOc2ccccc21 | 13%
28 | O=C(CSc1nc(-c2ccccc2)nc2ccc(F)cc12)Nc1cccc(C(=O)O)c1 | 6.58%
29 | O=S(=O)(c1ccc(Oc2ncnc3scc(-c4ccccc4)c23)cc1)N1CCOCC1 | 11%
30 | Cc1c(Cl)cccc1NC(=O)CN1CCC(NC(=O)C2CCCCC2)CC1 | 8.26%
31 | CN1C(c2ccccc2)CCOS1(=O)=O (stereo not drawn) | 9.76%
32 | CCOc1ccc(N2CC(C(=O)NCCN3C(=O)S/C(=C\c4ccc(OC)c(OC)c4)C3=O)CC2=O)cc1 (stereo not drawn) | -7.01%
33 | CCN(CC)c1ccc(S(=O)(=O)N2CCOCC2)cc1NC(=O)c1cc(=O)c2ccccc2o1 | 11.3%
34 | Cc1onc(-c2ccccc2)c1C(=O)Nc1ccc2c(C)cc(=O)oc2c1 | 2.13%
35 | Cc1ccc(NC(=O)C2CCCN2C(=O)Oc2ccccc2)cc1 (stereo not drawn) | 0.401%
36 | CC(=O)c1ccc(NC(=O)c2ccc3snnc3c2)cc1 | 6.06%
37 | CSc1nc2ccc(Cl)cc2[nH]1 | 4.95%
38 | Cc1cc(NC(=O)CCC(=O)N(CC(=O)NC2CCCC2)c2ccc(F)c(Cl)c2)no1 | 15.4%
39 | CSc1nc(C)cc(SC(C(C)=O)C(=O)Nc2ccccc2)n1 (stereo not drawn) | 13.3%
40 | COCCN(C(=O)c1ccccc1)c1nnc(-c2cccnc2)s1 | 10.5%
41 | O=C(NCc1ccccc1)c1ccc2c(c1)S(=O)(=O)c1cc(Cl)ccc1C2=O | 0.584%
42 | COc1cccc(CN2CC(C(=O)N3CCN(C(C)C)CC3)CCC2=O)c1 (stereo not drawn) | 9.91%
43 | C=CCSc1nnc(CCCCCN2C(=O)c3cccc4cccc(c34)C2=O)o1 | 1.07%
44 | O=C1CC(c2ccccc2)Cc2nc(NC3CC3)ncc21 (stereo not drawn) | -2.48%
45 | COc1ccccc1CNC(=O)c1oc2ccc(S(=O)(=O)N3CCOCC3)cc2c1C | -7.46%
